Blank lines part the entries; values can stand above or below the binder they belong to.
Key:
[1] = molecular target: human HER3 recombinant protein (human, UniProt P21860 partial chain); assay: ELISA, coated human HER3, anti-human Fc-HRP
[2] = molecular target: T1, Rat EGFR extracellular domain (ECD) linked to His tag (rat, UniProt A0ABK0LZB0 35-651); assay: BLI (Octet RED), antibody on anti-human IgG Fc biosensors, ECD-His in solution
T1 construct: extracellular domain; not shown: His tag

[3] = molecular target: T2, Mouse cMET extracellular domain (ECD) linked to His tag (mouse, UniProt P16056 25-931); assay: as above
T2 construct: extracellular domain; not shown: His tag

[4] = molecular target: T3, Rat cMET extracellular domain (ECD) linked to His tag (rat, UniProt P97523 25-935); assay: as above
T3 construct: extracellular domain; not shown: His tag

[5] = molecular target: T4, EGFR on EGFR and cMET co-expressed tumor cell lines (UniProt P00533); assay: flow cytometry, EBC-1 cells (co-express EGFR and cMET; both arms contribute)
T4 construct: whole, on cells

[6] = molecular target: T5, cMET on EGFR and cMET co-expressed tumor cell lines (UniProt P08581); assay: as above
T5 construct: whole, on cells

[7] = molecular target: T4, EGFR on EGFR and cMET co-expressed …; assay: flow cytometry, MKN-45 cells (co-express EGFR and cMET; both arms contribute)
[8] = molecular target: T5, cMET on EGFR and cMET co-expressed …; assay: as above
[9] = molecular target: T6, Human EGFR extracellular domain (ECD) linked to His tag (human, UniProt P00533 partial chain); assay: BLI (Octet RED), antibody on anti-human IgG Fc biosensors, ECD-His in solution, 1:1 model
T6 construct: extracellular domain; not shown: His tag

[10] = molecular target: T7, Cynomolgus EGFR extracellular domain (ECD) linked to His tag (cynomolgus, UniProt A0A2K5WK39 25-645); assay: as above
T7 construct: extracellular domain; also called Cyno EGFR; monkey EGFR; not shown: His tag

[11] = molecular target: T8, Human cMET extracellular domain (ECD) linked to His tag (human, UniProt P08581 25-932); assay: as above
T8 construct: extracellular domain; not shown: His tag

[12] = molecular target: T9, Cynomolgus cMET extracellular domain (ECD) linked to His tag (cynomolgus, UniProt O95905); assay: as above
T9 construct: extracellular domain; also called Cyno cMET; monkey cMET

Human EGFR = molecular target: T10, Human EGFR (human, UniProt P00533); assay: ELISA, plate coated with 100 ng/well human EGFR recombinant protein, HRP anti-human Fc, OD450
T10 construct: recombinant protein coated on the ELISA plate; also called human EGFR recombinant protein

Human cMET = molecular target: T11, Human cMET; assay: ELISA, plate coated with 100 ng/well human cMET recombinant protein, HRP anti-human Fc, OD450
T11 construct: also called human cMET recombinant protein
T11 chain: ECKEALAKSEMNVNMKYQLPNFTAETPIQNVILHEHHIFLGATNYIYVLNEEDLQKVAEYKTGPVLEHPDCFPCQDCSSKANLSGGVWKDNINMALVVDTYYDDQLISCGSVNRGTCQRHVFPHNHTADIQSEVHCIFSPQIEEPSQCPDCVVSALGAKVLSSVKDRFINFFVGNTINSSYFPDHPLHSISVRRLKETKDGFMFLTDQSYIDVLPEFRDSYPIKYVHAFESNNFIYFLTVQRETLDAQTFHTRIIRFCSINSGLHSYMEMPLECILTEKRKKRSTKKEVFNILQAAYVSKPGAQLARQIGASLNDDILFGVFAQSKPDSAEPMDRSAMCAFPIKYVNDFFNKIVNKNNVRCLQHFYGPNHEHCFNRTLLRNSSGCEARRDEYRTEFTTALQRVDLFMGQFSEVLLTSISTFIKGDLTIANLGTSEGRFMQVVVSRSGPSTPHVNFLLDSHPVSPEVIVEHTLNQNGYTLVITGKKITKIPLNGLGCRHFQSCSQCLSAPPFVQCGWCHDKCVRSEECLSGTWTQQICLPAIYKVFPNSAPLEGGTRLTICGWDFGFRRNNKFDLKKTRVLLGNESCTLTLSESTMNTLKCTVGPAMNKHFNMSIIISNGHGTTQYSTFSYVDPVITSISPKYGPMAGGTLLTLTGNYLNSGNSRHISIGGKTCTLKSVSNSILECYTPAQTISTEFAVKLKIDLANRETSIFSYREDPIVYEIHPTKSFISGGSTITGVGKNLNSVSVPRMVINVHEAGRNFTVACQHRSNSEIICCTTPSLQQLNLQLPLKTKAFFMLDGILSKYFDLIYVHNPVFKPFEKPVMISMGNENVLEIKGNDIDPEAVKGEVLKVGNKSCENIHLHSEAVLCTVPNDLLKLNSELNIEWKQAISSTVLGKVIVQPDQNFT

[13] = molecular target: T4, EGFR on EGFR and cMET co-expressed …; assay: flow cytometry on ACHN cells (co-express EGFR and cMET), PE anti-human Fc; signal of the whole bispecific, not resolved by arm
[14] = molecular target: T5, cMET on EGFR and cMET co-expressed …; assay: as above

T3 sequence (P97523 25-935): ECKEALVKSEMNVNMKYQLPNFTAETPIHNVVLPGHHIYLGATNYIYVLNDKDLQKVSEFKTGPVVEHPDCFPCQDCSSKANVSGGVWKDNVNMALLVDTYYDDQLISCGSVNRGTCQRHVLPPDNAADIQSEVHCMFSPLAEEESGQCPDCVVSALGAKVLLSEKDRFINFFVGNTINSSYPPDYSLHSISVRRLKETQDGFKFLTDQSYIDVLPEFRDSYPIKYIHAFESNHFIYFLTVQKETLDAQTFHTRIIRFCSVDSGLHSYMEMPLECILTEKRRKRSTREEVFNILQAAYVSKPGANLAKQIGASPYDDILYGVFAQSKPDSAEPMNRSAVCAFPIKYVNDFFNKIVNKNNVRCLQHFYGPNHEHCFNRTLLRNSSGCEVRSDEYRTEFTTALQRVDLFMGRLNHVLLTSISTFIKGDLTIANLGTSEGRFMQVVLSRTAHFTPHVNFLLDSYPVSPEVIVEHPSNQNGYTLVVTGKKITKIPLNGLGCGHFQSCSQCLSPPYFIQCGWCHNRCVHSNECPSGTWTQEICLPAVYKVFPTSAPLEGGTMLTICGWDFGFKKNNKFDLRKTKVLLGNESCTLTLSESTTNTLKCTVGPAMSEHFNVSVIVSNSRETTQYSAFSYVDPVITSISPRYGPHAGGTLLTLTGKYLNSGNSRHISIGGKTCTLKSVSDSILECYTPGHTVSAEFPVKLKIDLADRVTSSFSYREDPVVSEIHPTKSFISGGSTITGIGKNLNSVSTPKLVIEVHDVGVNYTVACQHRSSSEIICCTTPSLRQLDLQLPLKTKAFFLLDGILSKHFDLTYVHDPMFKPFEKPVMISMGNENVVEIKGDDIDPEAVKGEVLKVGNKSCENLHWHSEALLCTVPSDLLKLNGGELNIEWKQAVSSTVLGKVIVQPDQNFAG
T2 sequence (P16056 25-931): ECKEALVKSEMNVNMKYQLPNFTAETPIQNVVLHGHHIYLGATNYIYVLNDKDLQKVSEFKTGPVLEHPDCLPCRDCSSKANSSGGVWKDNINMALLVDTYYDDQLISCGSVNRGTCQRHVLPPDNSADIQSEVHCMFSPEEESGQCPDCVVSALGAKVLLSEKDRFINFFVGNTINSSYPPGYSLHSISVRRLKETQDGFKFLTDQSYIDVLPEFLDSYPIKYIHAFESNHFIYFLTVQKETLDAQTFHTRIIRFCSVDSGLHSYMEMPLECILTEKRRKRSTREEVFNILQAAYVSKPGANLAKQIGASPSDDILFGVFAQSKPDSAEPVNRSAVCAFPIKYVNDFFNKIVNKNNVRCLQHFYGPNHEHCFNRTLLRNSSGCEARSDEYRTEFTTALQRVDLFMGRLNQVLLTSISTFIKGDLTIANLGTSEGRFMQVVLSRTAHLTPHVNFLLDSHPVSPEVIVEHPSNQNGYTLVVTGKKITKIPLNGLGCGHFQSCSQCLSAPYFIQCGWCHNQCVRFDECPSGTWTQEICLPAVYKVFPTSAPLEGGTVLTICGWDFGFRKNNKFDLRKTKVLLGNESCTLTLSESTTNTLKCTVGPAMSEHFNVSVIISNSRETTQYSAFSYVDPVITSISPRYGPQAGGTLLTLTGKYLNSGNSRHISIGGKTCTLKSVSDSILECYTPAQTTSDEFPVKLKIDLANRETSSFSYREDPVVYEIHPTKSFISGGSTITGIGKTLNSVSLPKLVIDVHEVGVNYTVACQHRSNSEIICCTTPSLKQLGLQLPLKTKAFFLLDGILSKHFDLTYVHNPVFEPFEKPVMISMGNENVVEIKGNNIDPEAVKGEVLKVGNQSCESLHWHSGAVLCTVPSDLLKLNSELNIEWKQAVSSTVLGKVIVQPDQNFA

binding result [1]: no binding (tested: about 130 nM) | EC50 (read off the curve) [5]: ~3 nM | EC50 (read off the curve) [6]: ~3 nM | EC50 (read off the curve) [7]: ~4 nM | EC50 (read off the curve) [8]: ~4 nM | Kd [9]: 4.4 nM | Kd [10]: 8.1 nM | Kd [11]: 0.003 nM | Kd [12]: 0.003 nM | EC50 (read off the curve) (Human EGFR): ~0.1 nM | EC50 (read off the curve) (Human cMET): ~0.2 nM | EC50 (read off the curve) [13]: ~3 nM | EC50 (read off the curve) [14]: ~3 nM
B1: Bsab 67 (bispecific antibody, human IgG1, kappa, L234A L235A)
chain 1: AIQLTQSPESLSASVGDRVTITCRASQDISSALVWYQQKPGKAPKLLIYDASSLESGVPDRFSGSESGTDFTLTISSLQPEDFATYYCQQFNSYPLTFGGGTKVEIKRTVAAPSVFIFPPSDEQLKSGTASVVCLLNNFYPREAKVQWKVDNALQSGNSQESVTEQDSKDSTYSLSSTLTLSKADYEKHKVYACEVTHQGLSSPVTKSFNRGECGGGGSGGGGSGGGGSGGGGSGGGGSGGGGSGGGGSGGGGSQVQLVESGGGVVQPGRSLRLSCAASGFTFSTYGMHWVRQAPGQGLEWVAVIWDDGSYKYYGDSVKGRFTISRDNSKNTLYLQMNSLRAEDTAVYYCARDGITMVRGVMKDYFDYWGQGTLVTVSSASTKGPSVFPLAPSSKSTSGGTAALGCLVKDYFPEPVTVSWNSGALTSGVHTFPAVLQSSGLYSLSSVVTVPSSSLGTQTYICNVNHKPSNTKVDKKV[omitted - human IgG1 Fc with L234A L235A Y349C T366W (EU numbers)]
chain 2: DIVMTQSPDSLAVSLGERATINCKSSESVDSYANSFLHWYQQKPGQPPKLLIYRASTRESGVPDRFSGSGSGTDFTLTISSLQAEDVAVYYCQQSKEDPLTFGGGTKVEIKRTVAAPSVFIFPPSDEQLKSGTASVVCLLNNFYPREAKVQWKVDNALQSGNSQESVTEQDSKDSTYSLSSTLTLSKADYEKHKVYACEVTHQGLSSPVTKSFNRGECGGGGSGGGGSGGGGSGGGGSGGGGSGGGGSGGGGSGGGGSQVQLVQSGAEVKKPGASVKVSCKASGYIFTAYTMHWVRQAPGQGLEWMGWIKPNNGLANYAQKFQGRVTMTRDTSISTAYMELSRLRSDDTAVYYCARSEITTEFDYWGQGTLVTVSSASTKGPSVFPLAPSSKSTSGGTAALGCLVKDYFPEPVTVSWNSGALTSGVHTFPAVLQSSGLYSLSSVVTVPSSSLGTQTYICNVNHKPSNTKVDKKVEPKSCDKTHTCPPCPAPEAAGGPSVFLFPPKPKDTLMISRTPEVTCVVVDVSHEDPEVKFNWYVDGVEVHNAKTKPREEQYNSTYRVVSVLTVLHQDWLNGKEYKCKVSNKALPAPIEKTISKAKGQPREPQVYTLPPCRDELTKNQVSLSCAVKGFYPSDIAVEWESNGQPENNYKTTPPVLDSDGSFFLVSKLTVDKSRWQQGNVFSCSVMHEALHNHYTQKSLSLSPGK
notes: two chains, one knob and one hole; also called Basb 67
binding result [2]: no binding (tested: 100 nM (highest concentration tested)) | binding result [3]: no binding (tested: 200 nM (highest concentration tested)) | binding result [4]: no binding (tested: 200 nM (highest concentration tested))

Kd [9]: 4.5 nM | Kd [10]: 9 nM | Kd [11]: 0.002 nM | Kd [12]: 0.002 nM | EC50 (read off the curve) (Human EGFR): ~0.1 nM | EC50 (read off the curve) (Human cMET): ~0.2 nM | EC50 (read off the curve) [13]: ~4 nM | EC50 (read off the curve) [14]: ~4 nM
B2: Bsab 67-LD038 (5) (bispecific antibody, human IgG1, kappa, L234A L235A)
chain 1: B1 chain 1
chain 2: B1 chain 2
modifications: LD038 drug-linker coupled after TCEP reduction; DAR 5.1 by LC-MS; sites not given
notes: also called Basb 67-LD038 (5)
binding result [2]: no binding (tested: 100 nM (highest concentration tested)) | binding result [3]: no binding (tested: 200 nM (highest concentration tested)) | binding result [4]: no binding (tested: 200 nM (highest concentration tested))
